# Laboratory results as given in the supplement of paper PMC3334620.
# The full ranking holds about 33,000 sequences; the median of “E-score (-0.5 to 0.5)” is about -0.041, and the highest 2% start at about 0.37. This is one part of the list.
# Target: T1, Ecm22 (UniProt Q05958)
# T1 sequence: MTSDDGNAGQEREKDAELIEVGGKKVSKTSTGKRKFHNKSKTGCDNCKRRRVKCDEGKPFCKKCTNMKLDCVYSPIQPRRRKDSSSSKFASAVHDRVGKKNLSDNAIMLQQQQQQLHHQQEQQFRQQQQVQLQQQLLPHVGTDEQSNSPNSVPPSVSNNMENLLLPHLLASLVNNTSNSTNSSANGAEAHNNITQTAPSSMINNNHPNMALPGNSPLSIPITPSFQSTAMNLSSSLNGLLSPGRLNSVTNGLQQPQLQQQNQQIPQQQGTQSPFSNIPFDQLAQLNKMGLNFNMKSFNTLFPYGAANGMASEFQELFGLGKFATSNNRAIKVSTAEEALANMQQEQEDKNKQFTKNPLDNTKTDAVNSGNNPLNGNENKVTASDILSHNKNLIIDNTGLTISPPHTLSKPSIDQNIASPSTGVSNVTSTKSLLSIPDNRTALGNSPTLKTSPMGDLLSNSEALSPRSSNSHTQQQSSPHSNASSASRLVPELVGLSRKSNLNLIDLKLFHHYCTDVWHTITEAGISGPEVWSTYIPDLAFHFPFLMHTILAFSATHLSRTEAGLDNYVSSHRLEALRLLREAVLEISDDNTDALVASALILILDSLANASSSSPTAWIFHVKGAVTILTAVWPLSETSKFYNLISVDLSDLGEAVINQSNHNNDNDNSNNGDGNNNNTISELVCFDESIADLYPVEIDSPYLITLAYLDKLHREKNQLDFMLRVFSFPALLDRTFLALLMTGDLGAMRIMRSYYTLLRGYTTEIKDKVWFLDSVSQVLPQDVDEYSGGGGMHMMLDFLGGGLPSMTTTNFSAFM
# Experiment: PBM E-score (8-mer binding enrichment) (E-score (-0.5 to 0.5)); higher = stronger / more preferred TF binding; most listed sequences are background and not binding sites
# Settings: protein concentration: 200 nM; construct: GST-full length
# Procedure, shortened: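 Full-length yeast transcription factors or their DNA-binding domains, GST-tagged and expressed with PURExpress, were applied at about 100-200 nM to universal all-10-mer Agilent arrays. These arrays had been made double-stranded by primer extension on fresh or once-stripped slides. Detection used fluorescent anti-GST, normalisation used masliner, and E-scores for ungapped eight-base words pooled with reverse complements came from the Universal PBM Analysis Suite.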
row,Sequence,PBM E-score
1,CGATTACC,0.159
2,AGGCTAAG,-0.244
3,TCAGAGAA,-0.153
4,CTTCGCTA,0.178
5,AGACAAAT,-0.122
6,ACCGTATC,0.346
7,CATATAAG,0.0284
8,AACACAGG,-0.235
9,AGAGGATG,-0.0754
10,ACCTCACG,-0.188
11,GGTATCGA,0.107
12,CTAATGCC,-0.0353
13,CGTGAACC,-0.0188
14,AGTTCGAA,0.118
15,CTTCGGTA,0.0827
16,GCCTCTTA,0.0893
17,CTCTCAAC,-0.0965
18,CACTGACC,0.0493
19,GTAACAAA,0.157
20,GAGTGGGC,-0.039
21,AATTCTGC,0.00795
22,AAGCGGCG,0.135
23,TACATCAA,-0.142
24,AGATTTGG,-0.0939
25,CCGACTCG,0.183

row,Sequence,PBM E-score
1,CACAACCA,-0.032
2,AAGTATCC,0.026
3,AACTGTAG,-0.171
4,CGGACACG,0.189
5,AAATACAA,0.136
6,CGGGGGTC,-0.124
7,CACTTCGC,0.0491
8,GCCTGTAC,0.157
9,CCGGCTCG,0.179
10,CGACGAGA,0.08
11,CATGAAAA,0.00915
12,GGGAACCC,0.0178
13,CTATGTTC,-0.0416
14,ATGGGGCC,-0.398
15,AACAGAGA,-0.168
16,CAATGAAG,0.0367
17,AATAGTAT,0.0635
18,CCATCAAC,0.0649
19,GCCAGCGA,-0.13
20,AATAAGTC,-0.235
21,AGACCACT,-0.136
22,AACTTATT,0.0204
23,AACGGTTA,0.27
24,ACACTAGC,-0.124
25,ATTTAGCA,-0.0835

row,Sequence,PBM E-score
1,TAGCAGAA,-0.0438
2,AGGATGAG,-0.0765
3,TTCGAAAA,0.0735
4,ACGTGGAA,0.0168
5,AGGGAGAC,-0.102
6,CCTCTGGC,-0.116
7,ATACTCCC,-0.0754
8,AAGTAGTA,0.00915
9,CGCGAATC,0.161
10,ACCAAGAA,-0.0381
11,GTGCTACA,-0.309
12,CTTGGCCC,-0.231
13,GGATCCCC,-0.0315
14,CATCTGCA,-0.0833
15,GTTGCCCA,0.109
16,AGCTTGTG,-0.241
17,AACTCATC,-0.0804
18,GGGCTAAC,-0.248
19,CGGCGTGC,-0.188
20,GTAATCCA,-0.0841
21,AACGGAAG,0.187
22,CCGTTCAA,0.3
23,AGAATCAA,0.0427
24,ACTCCATG,-0.0728
25,CCGAAACC,0.00822

row,Sequence,PBM E-score
1,CACGCTAG,-0.168
2,AACACTGA,-0.059
3,GCAGAGCC,0.0795
4,CTATTGCC,-0.0904
5,AAAGCGCC,-0.0107
6,CGTTCCTA,0.439
7,AGATAATA,0.0537
8,AAATGAAT,-0.205
9,AAACGTGG,0.133
10,AGAGAAAT,0.0515
11,GAGGTGCA,-0.157
12,CGACTATA,0.205
13,CTATCCAC,-0.00901
14,ACACACGA,0.2
15,AGCCCTAA,-0.169
16,ACTGGATC,-0.0609
17,CAGATCAG,-0.143
18,CGCCACTC,-0.016
19,ATACTGCA,0.0221
20,AGATCCCC,-0.171
21,CCTAATCA,-0.118
22,AGGATAGA,-0.199
23,CTTATATC,-0.0977
24,CTCTTAAA,-0.0204
25,AGTCTCGG,0.24

row,Sequence,PBM E-score
1,ATGGCATA,0.149
2,AGCCCATG,-0.267
3,ATGTCCCC,-0.186
4,AGTCCCCC,-0.313
5,AGAAGAAT,-0.119
6,CACTCACC,-0.256
7,AAGGCTCT,-0.255
8,ATTACTTC,-0.0783
9,CCTTTGGA,-0.169
10,ATTTAAAC,0.163
11,CTCCTTAA,-0.221
12,GGCTGGAC,-0.199
13,AGTCACTG,-0.137
14,ATATGTCG,0.251
15,ACGAACTC,0.353
16,TAACCTTA,-0.209
17,CGTGTTCA,0.0358
18,GGTGGTGA,-0.1
19,AATATACA,0.104
20,ACGCTAAT,0.0368
21,ACAGTGCT,0.068
22,ATCTCAAT,0.029
23,CAGGACGG,-0.0607
24,CGCTCGCC,0.12
25,CTCCGCGA,0.0322

row,Sequence,PBM E-score
1,AGTCTCCA,-0.065
2,CTGTATTC,0.0901
3,GCTCAAGA,-0.198
4,GGTGTGTA,-0.0586
5,CCGAATCC,0.248
6,CCGATGAG,-0.116
7,CCATTGCC,-0.089
8,ACCATGAT,-0.0878
9,GGGTAGAC,-0.151
10,CGGCCAAG,-0.105
11,CTAGTCAA,-0.0961
12,TTGGCAAA,-0.0952
13,CTCTTGCA,-0.146
14,TAATGGCA,-0.165
15,ACCTTGAC,-0.285
16,ACATCCTC,0.0744
17,ATCTCACC,-0.156
18,CCGCACGC,-0.0486
19,ACCTTACA,-0.191
20,ATAGTGCC,0.0559
21,GGAGATAA,-0.0482
22,CCCTTGTC,-0.165
23,ACGTAAAA,0.243
24,GCGACGAA,0.26
25,CCTTTAAA,-0.135

row,Sequence,PBM E-score
1,AAGCAATG,-0.136
2,TAAGGCTA,0.0571
3,AAGAGATT,-0.173
4,AACTGACG,-0.13
5,CCGTTCGC,0.12
6,CACATAAC,-0.0514
7,CCGCAGCC,-0.0533
8,AGTTGAAG,-0.177
9,AAGCAACC,-0.119
10,ACACCCTA,-0.0231
11,GGTTACTA,-0.123
12,AACACATC,0.0582
13,ATCCGACG,0.207
14,AGAGCGCT,-0.217
15,AGGACGAT,0.0342
16,GGACGGTA,-0.17
17,CACGCGAC,0.0909
18,AGGAACCG,0.0955
19,CGCGCATA,0.0633
20,ATCGGAAT,0.00036
21,ACATAAGG,-0.0331
22,CCTCTGGA,-0.186
